Measured values taken from PubChem BioAssay AID485294 (National Center for Advancing Translational Sciences (NCATS), 2010).
The whole screen tested about 370,000 compounds, of which about 150 (0.041%) were called active. The inconclusive results got no clear call from the source; some entries with a clear call stand among them for comparison. Calls follow the shape of the dose curve; as a rule, active = well fitted inhibition curve with a large enough effect; inconclusive = small, poorly fitted or top-dose-only effect; inactive = flat fitted curve, though single readings scatter. No potency is given beside an inconclusive call; the fits are too rough.

biological target: Beta-lactamase (Escherichia coli (strain K12)) (UniProt P00811); test: qHTS Inhibitors of AmpC Beta-Lactamase (assay with detergent); conditions: AmpC hydrolysis of nitrocefin, absorbance 480 nm, 0.01% Triton; series mostly up to 114 µM; also: nearly all actives have a fitted effect of over 25% in size
Sequence of UniProt P00811 (P00811 whole entry, looked up): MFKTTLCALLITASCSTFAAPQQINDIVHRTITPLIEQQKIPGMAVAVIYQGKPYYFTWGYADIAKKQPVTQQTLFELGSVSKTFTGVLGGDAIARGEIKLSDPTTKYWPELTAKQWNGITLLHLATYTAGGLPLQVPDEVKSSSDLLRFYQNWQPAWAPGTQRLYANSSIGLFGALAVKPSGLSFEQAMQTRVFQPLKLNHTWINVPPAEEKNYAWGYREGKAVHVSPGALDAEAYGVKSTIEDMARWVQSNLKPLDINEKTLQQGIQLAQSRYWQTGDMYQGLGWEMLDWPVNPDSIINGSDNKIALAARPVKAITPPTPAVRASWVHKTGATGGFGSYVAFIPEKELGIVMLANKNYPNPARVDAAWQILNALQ
Summary of the method: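 20 mM phosphate pH 7.0 + 0.01% (detergent screen) or 0.0001% Triton X-100; 5.3 nM AmpC reagent; cpd preinc 15 min RT; nitrocefin (800 uM stock) to start; A480 q20 s × 4 min; Activity was normalised to no-enzyme and no-compound control wells.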
Potency is read from the fitted curve at half-maximal effect; tags tell the direction and shape of the fitted curve.

Row | Structure (SMILES) | Potency
1 | CCOc1ccc(NC(=S)N2CCn3c(nc4ccccc43)C2)cc1 | inconclusive [inhibitor, full curve]
2 | O=C(CN(C(=O)CSc1nc2ccccc2o1)c1ccccc1F)NC1CCCCC1 | inconclusive [inhibitor, full curve, poor fit]
3 | Cc1ccc2c(=O)c(C(=O)c3ccc(F)cc3)cn(CC(=O)Nc3ccc4c(c3)OCCO4)c2n1 | inactive
4 | COCCn1c(-c2ccc(OC(F)(F)C(F)C(F)(F)F)cc2)nc2c1c(=O)[nH]c(=O)n2CC(C)C (stereo not given) | inactive
5 | CN1CCN(c2nc3c(c(=O)[nH]c(=O)n3C)n2Cc2cccc(Br)c2)CC1 | inactive
6 | COc1ccccc1NC(=O)/C=C/c1ccc(OC)c(S(=O)(=O)N2CCOCC2)c1 | inactive
7 | CC(=O)CCc1ccc(OC(=O)c2cccnc2)cc1 | inconclusive [inhibitor, full curve, poor fit]
8 | CCC(=O)C1=C(N2CCCC2)CC(C)(C)CC1=O | inconclusive [inhibitor, full curve, poor fit]
9 | Cc1ccc(-n2cc(CNCCc3ncc(C)[nH]3)c(-c3ccc(F)cc3)n2)cc1 | inactive
10 | Cc1cc(C(=O)Nc2cccc3ncccc23)no1 | inconclusive [inhibitor, partial curve, poor fit]
11 | Cc1ccc(C(=O)NC(=S)Nc2cc(-c3nc4ccccc4s3)ccc2C)cc1 | inconclusive [inhibitor, full curve, poor fit]
12 | O=C(Nc1ccnn1C1CCN(C(=O)c2cccc(C(F)(F)F)c2)CC1)C1CC1 | inactive
13 | COC(=O)c1ccccc1NC(=O)c1cccc(COc2ccccc2Cl)c1 | inactive
14 | CC(C)c1ccc(C(=O)NC(=S)NCc2cccnc2)cc1 | inconclusive [inhibitor, single point]
15 | CCOc1ccc(/C=N/NC(=O)NC23CC4CC(CC(C4)C2)C3)cc1O | inconclusive [inhibitor, full curve, poor fit]
16 | CC(C)C(=O)N1CCN(c2ccc(NC(=O)c3ccco3)cc2Cl)CC1 | inconclusive [inhibitor, full curve]
17 | CC(C)c1ccc(S(=O)(=O)N2CCC(C(=O)NCc3ccco3)CC2)cc1 | inconclusive [inhibitor, full curve, poor fit]
18 | Cc1noc(/C=C/c2ccccc2F)c1S(=O)(=O)N1CCC(C(=O)NCC(C)c2ccccc2)CC1 (stereo not given) | inconclusive [inhibitor, single point]
19 | Cc1ccc2c(c1)[nH]c1c(=O)n(CCN3CCCCC3)cnc12 | inconclusive [inhibitor, full curve, poor fit]
20 | O=C(CSc1ccc2nnc(-c3ccc(F)cc3)n2n1)NCc1ccco1 | inactive
21 | C(=N\Nc1nc2ccccc2s1)/c1ccc2c(c1)OCO2 | inconclusive [inhibitor, single point]
22 | CCOc1cccc(C(=O)Nc2cccnc2)c1 | inconclusive [inhibitor, partial curve, poor fit]
23 | COc1cc(OC)c(NC2=C(c3ccc(C(F)(F)F)cc3)C(=O)c3ccccc32)cc1Cl | inactive

Row | Structure (SMILES) | Potency
24 | O=C1C=CC(=O)N1Nc1ccc(Br)cc1 | inactive
25 | CCN(CC)C(=O)CN(c1cc2c(cc1OC)oc1ccccc12)S(=O)(=O)c1ccc(C)cc1 | inconclusive [inhibitor, full curve]
26 | COc1ccc(NC(=O)C2CCCN(c3c4c(nc5ncnn35)CCC4)C2)cc1 (stereo not given) | inconclusive [inhibitor, full curve, poor fit]
27 | O=C(CCS(=O)(=O)c1ccccc1)N(Cc1cccnc1)c1nc2ccc(F)cc2s1 | inactive
28 | COC(=O)Cn1c2ccc(OC)cc2c2nc3ccccc3nc21 | inconclusive [inhibitor, full curve, poor fit]
29 | CC(=O)c1ccc(-n2c(CCC(=O)O)ccc2-c2cccs2)cc1 | inactive
30 | Cc1ccc(-n2c(=S)sc3c(=O)n(-c4ccc(F)cc4)c(SCC(=O)O)nc32)cc1C | inconclusive [inhibitor, full curve, poor fit]
31 | Cc1ccc(NC(=O)C(OC(=O)c2ccc(O)cc2)c2ccccc2)cc1Cl (stereo not given) | inactive
32 | Cc1ccc(CC(=O)O/N=C(\N)Cc2ccc([N+](=O)[O-])cc2)cc1 | inconclusive [inhibitor, partial curve]
33 | COc1ccc2c(c1)CC(C1(O)C(=O)Nc3ccccc31)C2=O (stereo not given) | inconclusive [inhibitor, full curve, poor fit]
34 | COc1ccc(OC)c(/C=C2\N=C(c3ccccc3)OC2=O)c1 | inactive
35 | O=C(O)c1ccc(Cn2cc(C(F)(F)F)ccc2=O)cc1 | inconclusive [inhibitor, full curve, poor fit]
36 | Cn1c(SCc2ccccc2)nnc1-c1c[nH]c2ccccc12 | inconclusive [inhibitor, full curve, poor fit]
37 | O=C(NC(=S)Nc1ccc2c(c1)OCO2)c1ccccc1 | inactive
38 | C/C(CC(C)(C)C1CCCCC1)=N\NC(N)=S | inconclusive [inhibitor, partial curve, poor fit]
39 | CCC(O)c1cc2c(cc1NC(=O)c1ccc(C)cc1)OCCO2 (stereo not given) | inactive
40 | CCN(CC)c1ccc(-c2c(C#N)c(N)nc(OC)c2C#N)cc1 | inconclusive [inhibitor, full curve, poor fit]
41 | CCOc1ccc(CCNC(=O)CSc2nnnn2-c2ccccc2)cc1OCC | inactive
42 | CCCCN1C(=O)c2ccc(C(=O)Nc3ccc(S(=O)(=O)N(C)C)cc3)cc2C1=O | inconclusive [inhibitor, full curve]
43 | CC(C(=O)Nc1ccc(OC(F)(F)F)cc1)N1Cc2ccccc2C1=O (stereo not given) | inactive
44 | CC(=O)N1CC2(CC(=O)OC(C)C)CN(C(C)=O)CC(CC(=O)OC(C)C)(C1)C2=O | inactive
45 | C[C@H](NC(=O)c1nc[nH]c1C(=O)NCCCCCNC(=O)OC(C)(C)C)C(=O)OC(C)(C)C | inactive
